{
  "source": "the supplement of paper PMC8728848",
  "binders": {"B1": {"name": "Cp ZmpB (Clostridium perfringens), Q0TR08 (protein)", "chain": "MNKRKIAAIILATMITNLSATTIDVLAQELNTKNNSKVEVSHDDESHQARVSKFDLYNSDKLDAYNQEFQVSRSNIKSINNNGGKYNSSTIDKAIDGNLETHWETGKPNDANFTNEVVVTFNEITNIDRIVYSARRDSARGKGFAKEFEIYASLKDEGDDFNLVSSGEYTESTRDLVEIKFNPTDFKRLKFKFKKADQNWASAAEFMFYKEDKLNEKFNGLFTDSSMNKVSEEFNTLEKLNAFENELKDHPIYDLYKEGLNNARAILTETSENPTKATLGQITYNLNDDYNNQYRMPYKNIKAIKNNGRHYAAQNIEKAIDNDVNTYWETGTLNSSSFNNEVEVEFNDLVTLDRIVYGSRQSDLKGFAEEVYIYASRTSKGDTYKLVATGAHEATKGLVEAKFEPTEFKRVKFKFKKSKQNSATLNELMFYKPDEVYSSIPKLFTDGTMSELSEEFNSLEKINAFKEKAKNHPLYNDFNETIELAESLISNPRKEDVLELEMRGDSISEAKKRKVWNFQDWQITGLSARAGDKITVYVDVAEGDPTPTLLYKQSLTQHGGATSFQLKPGKNEITIPEINYESNGIPKDVIQGGDLFFTNYKSDSQKRAPKVRIEGASKYPVFILGKSDENEVMKELEAYVEKIKAEPKTTPNIFAVSSNKSLEFVQATYALDWYKKNNKTPKYTAEQWDQYIADAMGFWGFDNSKDVNSDFNFRIMPMVKNLSGGAFMNAGNGVIGIRPGNQDAILAANKGWGVAHELGHNFDTGGRTIVEVTNNMMPLFFESKYKTKTRITDQNIWENNTYPKVGLDDYSNNELYNKADSTHLAQLAPLWQLYLYDNTFYGKFERQFRERDFGNKNREDIYKSWVVAASDAMELDLTEFFARHGIRVDDKVKEDLAKYPKPDKKIYYLNDLAMNYKGDGFTENAKVSVSTSGSNGNIKLSFSVDDENKDNILGYEIRRDGKYVGFTSNDSFVDTKSNLDEDGVYVVTPYDRKLNTLNPIEVNALQPTLSVNPVITLALGEEFNEEEYIVAKDIKGNSLSESVKVKSSNVNTSKVGEYEVLYSLEDSKGNEYTKTSKVNVVSRKEYMSDLTPKQSSNGWGTVRKDKSISGGVIGLTRDGDFVDYNKGLGLHSNAEYVYDLEGKDYDYFESYVGVDKAMSSRPASSVIFKVLVDGEEKFNSGVMRSTTPQKYVKVDVKNAKELKLIVNDAGDGDSSDHASFGDAKLATLSSKPIIKGENLAYSMDEKVDLMKGITATDIEDGNITSKVQIKSSDFVEGKSGIFTVVYSVTDSDGLTSECSRTIAVTDKETQLSDLNWKSATIGSGSVRKDRAVSGNQIRLLNEDNSVETFAKGIGTHSYSEIVYNSEGYDIFDTWVGIDRHVADKKVSSVKFKVYVDGELKAETDVMRIDTPKKRLVVDVRNSKEIKLVVDVADNGNNWDHADWADAKFRNLAEYDASELNKAIEEAKKLDLNNYTEESSEALKNAISKGEEALLSKDKETINSALEELNKEMNSLVKVDLNAVINIPDKYLLKSIQNQLNKTGDITLGDMYSLTTLTLSGVEDLTGLENAKNLETLNMDYNEVKDLRPLSKLKKLNTLNAQEQFIAAGELKPSNGKVIGDSKVYNREGKNVAKTIRVVDKNGNTILEQDAKDEFTINTKDLSSGLYGVHVLFEDEGFSGVMFYLFNV"}},
  "assay_in_all_cases": "glycan array binding signal (z-score within array); higher = stronger binding",
  "details_in_all_cases": "glycan notation: IUPAC condensed, linker removed",
  "key": {"[1]": {"biological_target": "GlcNAc(a1-6)Gal(b1-4)GlcNAc", "outline": "(§1)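 The binding signal is a Z-score computed within each array and averaged over linkers. Arrays of the same protein sequence at different concentrations or buffers were also averaged together. Data originate from 3228 arrays in the Consortium for Functional Glycomics database, kept only where the protein sequence was available.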"}, "[2]": {"biological_target": "GlcNAc(b1-2)Gal(b1-3)GalNAc", "outline": "as §1"}, "[3]": {"biological_target": "GlcNAc(b1-2)Man(a1-3)[GlcNAc(b1-2)Man(a1-6)]Man(b1-4)GlcNAc(b1-4)GlcNAc", "outline": "as §1"}, "[4]": {"biological_target": "GlcNAc(b1-2)Man(a1-3)[GlcNAc(b1-2)Man(a1-6)]Man(b1-4)GlcNAc(b1-4)[Fuc(a1-6)]GlcNAc", "outline": "as §1"}, "[5]": {"biological_target": "GlcNAc(b1-2)Man(a1-3)[GlcNAc(b1-4)][GlcNAc(b1-2)Man(a1-6)]Man(b1-4)GlcNAc(b1-4)GlcNAc", "outline": "as §1"}, "[6]": {"biological_target": "GlcNAc(b1-2)Man(a1-3)[GlcNAc(b1-4)][GlcNAc(b1-2)Man(a1-6)]Man(b1-4)GlcNAc(b1-4)[Fuc(a1-6)]GlcNAc", "outline": "as §1"}, "[7]": {"biological_target": "GlcNAc(b1-2)[GlcNAc(b1-4)]Man(a1-3)[GlcNAc(b1-2)Man(a1-6)]Man(b1-4)GlcNAc(b1-4)GlcNAc", "outline": "as §1"}, "[8]": {"biological_target": "GlcNAc(b1-2)[GlcNAc(b1-4)]Man(a1-3)[GlcNAc(b1-4)][GlcNAc(b1-2)Man(a1-6)]Man(b1-4)GlcNAc(b1-4)GlcNAc", "outline": "as §1"}, "[9]": {"biological_target": "GlcNAc(b1-2)[GlcNAc(b1-4)]Man(a1-3)[GlcNAc(b1-4)][GlcNAc(b1-2)[GlcNAc(b1-6)]Man(a1-6)]Man(b1-4)GlcNAc(b1-4)GlcNAc", "outline": "as §1"}, "[10]": {"biological_target": "GlcNAc(b1-2)[GlcNAc(b1-4)]Man(a1-3)[GlcNAc(b1-4)][GlcNAc(b1-2)[GlcNAc(b1-6)]Man(a1-6)]Man(b1-4)GlcNAc(b1-4)[Fuc(a1-6)]GlcNAc", "outline": "as §1"}, "[11]": {"biological_target": "GlcNAc(b1-2)[GlcNAc(b1-6)]Man(a1-6)[GlcNAc(b1-2)Man(a1-3)]Man(b1-4)GlcNAc(b1-4)GlcNAc", "outline": "as §1"}, "[12]": {"biological_target": "GlcNAc(b1-2)[GlcNAc(b1-6)]Man(a1-6)[GlcNAc(b1-2)Man(a1-3)]Man(b1-4)GlcNAc(b1-4)[Fuc(a1-6)]GlcNAc", "outline": "as §1"}, "[13]": {"biological_target": "GlcNAc(b1-2)[GlcNAc(b1-6)]Man(a1-6)[GlcNAc(b1-4)][GlcNAc(b1-2)Man(a1-3)]Man(b1-4)GlcNAc(b1-4)GlcNAc", "outline": "as §1"}, "GlcNAc(b1-3)Fuc": {"biological_target": "GlcNAc(b1-3)Fuc", "outline": "as §1"}, "GlcNAc(b1-3)Gal": {"biological_target": "GlcNAc(b1-3)Gal", "outline": "as §1"}, "[14]": {"biological_target": "GlcNAc(b1-3)Gal(b1-3)GalNAc", "outline": "as §1"}, "GlcNAc(b1-3)Gal(b1-4)Glc": {"biological_target": "GlcNAc(b1-3)Gal(b1-4)Glc", "outline": "as §1"}, "[15]": {"biological_target": "GlcNAc(b1-3)Gal(b1-4)GlcNAc", "outline": "as §1"}, "[16]": {"biological_target": "GlcNAc(b1-3)Gal(b1-4)GlcNAc(b1-2)Man(a1-3)[GlcNAc(b1-3)Gal(b1-4)GlcNAc(b1-2)Man(a1-6)]Man(b1-4)GlcNAc(b1-4)GlcNAc", "outline": "as §1"}, "[17]": {"biological_target": "GlcNAc(b1-3)Gal(b1-4)GlcNAc(b1-2)Man(a1-3)[GlcNAc(b1-3)Gal(b1-4)GlcNAc(b1-2)Man(a1-6)]Man(b1-4)GlcNAc(b1-4)[Fuc(a1-6)]GlcNAc", "outline": "as §1"}, "[18]": {"biological_target": "GlcNAc(b1-3)Gal(b1-4)GlcNAc(b1-2)[GlcNAc(b1-3)Gal(b1-4)GlcNAc(b1-6)]Man(a1-6)[GlcNAc(b1-3)Gal(b1-4)GlcNAc(b1-2)Man(a1-3)]Man(b1-4)GlcNAc(b1-4)GlcNAc", "outline": "as §1"}, "[19]": {"biological_target": "GlcNAc(b1-3)Gal(b1-4)GlcNAc(b1-3)Gal(b1-4)GlcNAc", "outline": "as §1"}},
  "note": "This is one part of the list.",
  "data": [
    {"binder": "B1", "values": [
      {"measurement": "glycan array binding signal (z-score)", "setting": "[1]", "value": -0.262},
      {"measurement": "glycan array binding signal (z-score)", "setting": "[2]", "value": 2.81},
      {"measurement": "glycan array binding signal (z-score)", "setting": "[3]", "value": -0.371},
      {"measurement": "glycan array binding signal (z-score)", "setting": "[4]", "value": 0.042},
      {"measurement": "glycan array binding signal (z-score)", "setting": "[5]", "value": 0.044},
      {"measurement": "glycan array binding signal (z-score)", "setting": "[6]", "value": -0.313},
      {"measurement": "glycan array binding signal (z-score)", "setting": "[7]", "value": 1.11},
      {"measurement": "glycan array binding signal (z-score)", "setting": "[8]", "value": -0.139},
      {"measurement": "glycan array binding signal (z-score)", "setting": "[9]", "value": 0.169},
      {"measurement": "glycan array binding signal (z-score)", "setting": "[10]", "value": 0.038},
      {"measurement": "glycan array binding signal (z-score)", "setting": "[11]", "value": -0.399},
      {"measurement": "glycan array binding signal (z-score)", "setting": "[12]", "value": -0.197},
      {"measurement": "glycan array binding signal (z-score)", "setting": "[13]", "value": -0.277},
      {"measurement": "glycan array binding signal (z-score)", "setting": "GlcNAc(b1-3)Fuc", "value": -0.252},
      {"measurement": "glycan array binding signal (z-score)", "setting": "GlcNAc(b1-3)Gal", "value": -0.286},
      {"measurement": "glycan array binding signal (z-score)", "setting": "[14]", "value": -0.131},
      {"measurement": "glycan array binding signal (z-score)", "setting": "GlcNAc(b1-3)Gal(b1-4)Glc", "value": 0.174},
      {"measurement": "glycan array binding signal (z-score)", "setting": "[15]", "value": -0.393},
      {"measurement": "glycan array binding signal (z-score)", "setting": "[16]", "value": -0.084},
      {"measurement": "glycan array binding signal (z-score)", "setting": "[17]", "value": -0.357},
      {"measurement": "glycan array binding signal (z-score)", "setting": "[18]", "value": -0.319},
      {"measurement": "glycan array binding signal (z-score)", "setting": "[19]", "value": 0.253}
    ]}
  ]
}
